About 16,000 (7.3%) of roughly 220,000 compounds were called active. Inconclusive results, whose numbers are uncertain, are shown with a selection of clear calls. The call rests on the fitted dose curve; in most records, active means well fitted inhibition curve with a large enough effect (not every such curve was filed as active); inconclusive means small, poorly fitted or top-dose-only effect, or another doubt; inactive means no such curve, though single readings can be large or run the other way. Potencies of inconclusive entries are doubtful fits and often do not repeat.
What follows are molecules tested against Aldehyde dehydrogenase 1A1 (Homo sapiens) (UniProt P00352) (assay: qHTS Assay for Inhibitors of Aldehyde Dehydrogenase 1 (ALDH1A1)). Details: Purified ALDH1A1, NADH fluorescence, propionaldehyde substrate; series mostly up to 75.3 µM.
Potency means the concentration at half of the fitted maximal effect; tags describe the fitted curve by direction and shape.

Chain of UniProt P00352 (P00352 whole entry, looked up): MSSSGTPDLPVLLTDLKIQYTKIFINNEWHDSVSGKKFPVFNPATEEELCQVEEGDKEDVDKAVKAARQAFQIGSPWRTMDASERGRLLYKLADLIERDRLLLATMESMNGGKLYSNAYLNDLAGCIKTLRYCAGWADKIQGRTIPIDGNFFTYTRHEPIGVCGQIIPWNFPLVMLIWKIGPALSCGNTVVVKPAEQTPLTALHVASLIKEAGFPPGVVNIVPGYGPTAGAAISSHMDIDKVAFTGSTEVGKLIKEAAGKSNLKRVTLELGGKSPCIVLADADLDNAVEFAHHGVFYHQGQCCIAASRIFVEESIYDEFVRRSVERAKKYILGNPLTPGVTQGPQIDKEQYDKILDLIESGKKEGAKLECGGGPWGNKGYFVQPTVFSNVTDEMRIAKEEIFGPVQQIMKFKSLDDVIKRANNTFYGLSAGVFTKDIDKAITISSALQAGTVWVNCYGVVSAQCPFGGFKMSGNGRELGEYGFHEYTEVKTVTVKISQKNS

Potency, inconclusive:
Cc1cc(C)nc(Nc2n[nH]c(-c3ccccc3C)n2)n1 39.8 µM [inhibitor, single point], CCOC(=O)c1nnn(-c2nonc2N)c1-c1ccc(OC)cc1 12.6 µM [inhibitor, partial curve], Cc1occc1-c1nnc(SCC(=O)c2ccc(F)cc2)n1Cc1ccco1 28.2 µM [inhibitor, single point], COc1ccc(N(CC(=O)NCCC2=CCCCC2)S(=O)(=O)c2ccccc2)c(OC)c1 28.2 µM [inhibitor, single point], CCCCC(=O)NC(c1ccc(OC)c(OC)c1)c1c(O)ccc2ccccc12 (stereo not given) 14.1 µM [inhibitor, partial curve], Cc1ccc2nc(-c3ccccn3)oc2c1 35.5 µM [inhibitor, partial curve], O=C(N/N=C/c1ccccn1)c1cccc([N+](=O)[O-])c1 20 µM [inhibitor, partial curve], C/C(=N\Nc1nc(N)cc(Cl)n1)c1cccc([N+](=O)[O-])c1 39.8 µM [inhibitor, single point], COc1ccc(N(CCCN2C(=O)c3cccc4cccc(c34)C2=O)C(=O)c2ccncc2)cc1 39.8 µM [inhibitor, single point], COc1ccc(-c2noc(-c3ccccc3-c3ccccc3)n2)cc1OC 31.6 µM [inhibitor, single point], CC1CCN(C(=O)c2ccc(COc3ccccc3Cl)o2)CC1 35.5 µM [inhibitor, single point], Cc1ccc2c(=O)oc(N(C)C)nc2c1 28.2 µM [inhibitor, partial curve], Cc1cccc(-c2nnn3c2nc(NCCc2ccc(S(N)(=O)=O)cc2)c2ccccc23)c1 35.5 µM [inhibitor, partial curve], O=C(NCc1ccncc1)C12CC3CC(CC(C3)C1)C2 28.2 µM [inhibitor, single point], COc1ccc(-c2cn3ccccc3n2)cc1[N+](=O)[O-] 25.1 µM [inhibitor, partial curve], COC(=O)c1cc(OC)c(OC)cc1NCC(=O)Nc1ccc(OC)c(OC)c1 22.4 µM [inhibitor, partial curve], Cc1cccc(C(=O)Nc2ccccc2C(=O)OCC(=O)Nc2ccc(C#N)cc2)c1 31.6 µM [inhibitor, single point], O=C(CSc1ncc(C(F)(F)F)cc1Cl)N1CCN(S(=O)(=O)c2ccc(Cl)cc2)CC1 39.8 µM [inhibitor, single point], N=c1nc(SCCC(=O)O)ss1 39.8 µM [inhibitor, single point], CCSc1nnc(-c2ccc(S(=O)(=O)N3CCOCC3)cc2)n1CC1CCCO1 (stereo not given) 35.5 µM [inhibitor, single point], CSc1nc(-c2ccc(Cl)cc2)nn1S(=O)(=O)c1ccccc1 39.8 µM [inhibitor, single point], Cc1ccc(NC(=O)COC(=O)CCOc2ccccc2C)cc1 31.6 µM [inhibitor, partial curve, poor fit], O=C(N/N=C/c1ccccn1)c1ccc(Br)cc1 39.8 µM [inhibitor, single point], CCCCNC(=O)c1cc2cc(OC)ccc2[nH]1 35.5 µM [inhibitor, single point], CN(C)CCN(Cc1cc2cc3c(cc2[nH]c1=O)OCO3)C(=S)NCc1ccco1 31.6 µM [inhibitor, single point], CN(C)S(=O)(=O)c1ccc(Nc2nc(C3CC3)nc3c2nnn3Cc2ccccc2Cl)cc1 31.6 µM [inhibitor, partial curve], Cc1ccc(Cl)cc1N1CCN(C(c2ccc(C#N)cc2)c2nnnn2C2CCCC2)CC1 (stereo not given) 11.2 µM [inhibitor, partial curve], CCOCCCNC(=O)c1cc2c(-c3ccc(Cl)cc3)nn(C)c2s1 31.6 µM [inhibitor, partial curve], CN(C)S(=O)(=O)c1ccc(C(=O)Nc2cc(S(=O)(=O)Nc3ccccc3Cl)ccc2N2CCCCC2)cc1 28.2 µM [inhibitor, single point], CCCCCCn1c(CN2CCCCC2C)nc2c1c(=O)n(C)c(=O)n2C (stereo not given) 10 µM [inhibitor, partial curve], NC(=S)n1[nH]c(-c2ccccc2)c(N=Nc2ccccc2C(=O)N2CCOCC2)c1=O 31.6 µM [inhibitor, single point], Cc1cc(-c2n[nH]c(=S)n2Cc2ccco2)n(C)n1 22.4 µM [inhibitor, single point], COc1ccc(C(=O)NCC2OCCc3ccccc32)c(O)c1 (stereo not given) 39.8 µM [inhibitor, single point], O=C(NCc1ccccn1)c1coc(=O)c(Br)c1 22.4 µM [inhibitor, partial curve], COc1ccc2cc(C)c3nnc(SCC(=O)Nc4cc(OC)c(OC)cc4C(=O)O)n3c2c1 35.5 µM [inhibitor, single point], O=C(C1=C[C@@H](c2ccc(Br)cc2)C[C@@H](OCc2ccc(CO)cc2)O1)N1CCN(Cc2ccccc2)CC1 28.2 µM [inhibitor, single point], COc1ccccc1S(=O)(=O)Cc1ccc(C(=O)NCCN2CCCC2)o1 31.6 µM [inhibitor, single point], CCOC(=O)C(C)/C(C)=N/NC(N)=S (stereo not given) 25.1 µM [inhibitor, single point], Cc1cc(NC(=S)NC(=O)C2CC2)ccc1Br 39.8 µM [inhibitor, single point], C=CCn1c(=O)c2ccccc2n2c(SCC(=O)c3ccccc3)nnc12 25.1 µM [inhibitor, single point], Cc1ccc(S(=O)(=O)n2nccc2-c2c(-c3ccc(Cl)cc3)noc2C)cc1 17.8 µM [inhibitor, partial curve], CCOc1cc(/C=C/c2nc3cc(C)c(C)cc3s2)ccc1OCC(=O)N1CCOCC1 10 µM [inhibitor, partial curve], CC(/C=N/NC(=O)Cc1cc(=O)[nH][nH]1)=C\c1ccccc1 28.2 µM [inhibitor, single point], CCCCN(C(=O)c1ccco1)c1nnc(-c2cc(OC)c(OC)c(OC)c2)s1 25.1 µM [inhibitor, partial curve], CCOCC(=O)Nc1sc2c(c1C(=O)OCC)CCCC2 28.2 µM [inhibitor, single point], Cc1nc2[nH]c(=O)c3c(n2n1)NC1=C(C(=O)CC(C)(C)C1)C3c1ccc(F)cc1 (stereo not given) 35.5 µM [inhibitor, single point]

Potency, active:
Cc1ccc2c(c1)nnn2C1CCN(C(=O)C23CC4CC(CC(C4)C2)C3)CC1 17.8 µM, COc1ccc(OC)c(C(=O)COC(=O)C2CC3CCCC(C2)C3=O)c1 (stereo not given) 7.08 µM, Cc1cc(C(=O)COc2ncnc3sccc23)c(C)n1C1CC1 20 µM, Cc1cccc(N2C(=O)CC(N3CCN(c4cccc(C(F)(F)F)c4)CC3)C2=O)c1 (stereo not given) 28.2 µM, Cc1cc(C(=O)OCC(=O)N2CC(C)CC(C)C2)c(C)o1 (stereo not given) 14.1 µM, Cc1ccc(S(=O)(=O)N/N=C/c2cc(Br)c(C)o2)cc1 5.62 µM

Potency, inactive:
C#C[C@@]1(OC(C)=O)CC[C@@H]2[C@@H]3CCC4=C[C@@H](OC(C)=O)CC[C@H]4[C@H]3CC[C@]21C, CC(C)N1C(=O)C2C(C(=O)NCc3ccccc3)C3C=CC2(O3)C1C(=O)NC(C)(C)C (stereo not given), Cc1ccc(C)n1-c1ccccc1N1CCCCC1, O=C(CN1CCCCCC1=O)N1CCN(S(=O)(=O)c2cccs2)CC1, Cc1ccc2c(c1)C=CC(C#N)N2C(=O)c1ccccc1 (stereo not given), CCOc1cc(/C=C2/NC(=O)NC2=O)cc(Br)c1OCc1ccc(C(=O)O)cc1, COc1cc(C2N(c3cccc(Cl)c3)C(=O)C3CCCN32)cc(OC)c1OC (stereo not given), Nc1ccc(/C=C/C(=O)c2ccco2)cc1, CN(C)c1nnnn1-c1ccccc1Oc1ncc(C(F)(F)F)cc1Cl, Cc1csc(NC(=O)CSc2nnc3ncccn23)n1, Cc1ccc(C(=O)C(=S)N2CCOCC2)cc1, O=S(=O)(c1ccccc1)N1CCC[C@@]2(CCN(Cc3ccccc3)C2)C1, Cc1cnn(-c2ccc3nnc(-c4ccc(Br)cc4)n3n2)c1, Cc1ccccc1CSc1nnc(C)c(=O)n1N, CCS(=O)(=O)N1CCC(C(=O)N2CCOCC2)CC1, Cc1cc(C)c(C#N)c(SCC(=O)c2ccc(Cl)cc2Cl)n1, NS(=O)(=O)c1cccc(NC(=O)COC(=O)CC2CC3CCC2C3)c1 (stereo not given), CCOC(=O)c1c(C)oc2cc(Br)c(OC(C)C(=O)OCC)cc12 (stereo not given)

Reference: PubChem BioAssay AID1030 (National Center for Advancing Translational Sciences (NCATS), 2008)
